Measurements: PubChem BioAssay AID493208 (National Center for Advancing Translational Sciences (NCATS), 2011)
Hit rate of the full screen: of about 44,000 compounds, about 340 (0.77%) were called active. Not shown: some 5% with an inconclusive outcome. Calls come from the whole dose curve; as a rule, active = well fitted inhibition curve with a large enough effect; inconclusive = small, poorly fitted or top-dose-only effect; inactive = flat fitted curve, though single readings scatter. The list shows a part of the results.

experiment: Acumen qHTS Assay for Inhibitors of the mTORC1 Signaling Pathway in MEF (Tsc2-/-, p53-/-) Cells: Sytravon; details: phospho-rpS6 immunofluorescence/PI, 24 h; series mostly up to 38.3 µM; activity change, negative = inhibition: at the top concentration; note: nearly all actives have a fitted effect of over 50% in size;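 for activity change, negative = inhibition: plate controls were DMSO for no effect and rapamycin for full effect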
Method in brief: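 Read-out: phospho-S6 Alexa-488 intensity over PI intensity per well, scored as % active cells using thresholds from rapamycin (7.5 nM) and DMSO controls. Tsc2-/-, p53-/- MEFs exposed to compound for 24 h; PI cell count recorded as viability.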
Potency is the fitted concentration of half-maximal effect.

Row | SMILES | activity change, negative = inhibition | Potency
1 | CC1N=C2c3ccccc3N=C(SCC(=O)NCCc3ccc(Cl)cc3)N2C1=O (stereo unspecified) | inactive: 13.5% | 
2 | O=C(CCS(=O)(=O)c1cc2c(cc1Cl)NC(=O)CO2)NCc1ccc(Cl)cc1 | inactive: 6.41% | 
3 | O=c1cc(-c2ccccc2)c2ccc3c(c2o1)CN(Cc1cccc(Cl)c1)CO3 | inactive: -19.7% | 
4 | CCOc1ccc(CC(=O)Nc2cccc(-c3nc4cccnc4s3)c2C)cc1 | inactive: -14.9% | 
5 | Cc1ccccc1NC(=O)Cn1c(=O)n(CCCC(=O)NCc2ccc3c(c2)OCO3)c(=O)c2ccccc21 | inactive: 5.53% | 
6 | COc1ccc2[nH]cc(CCN=C(NC(=O)c3ccccc3F)Nc3nc(C)cc(C)n3)c2c1 | inactive: 0.419% | 
7 | Cc1ccc(-c2cn3cccnc3n2)cc1NC(=O)C(C)(C)Oc1ccc(Cl)cc1 | inactive: 3.71% | 
8 | Cc1c(C(=O)Nc2ccccc2Br)oc2ccc(S(=O)(=O)N3CCCCCC3)cc12 | inactive: -10.9% | 
9 | C=C(C)CSc1nc2sc3c(c2c(=O)n1Cc1ccccc1)CC(C)(CC)OC3 (stereo unspecified) | inactive: 11.1% | 
10 | CCC(C)NC(=O)CN1C(=O)c2cccnc2Sc2ccccc21 (stereo unspecified) | inactive: -3.81% | 
11 | COc1cccc(NCc2cccn2-c2nnc(N3CCC(C)CC3)s2)c1 | inactive: 0% | 
12 | COc1ccc(NC(=O)C2CCC(CNS(=O)(=O)c3cccc4nsnc34)CC2)cc1OC (stereo unspecified) | inactive: -0.112% | 
13 | CCCOC(=O)c1cccc(Nc2nc(CCC)cc(=O)[nH]2)c1 | inactive: -2.52% | 
14 | CCOC(=O)Cn1c(=N)n(Cc2ccc(C(C)(C)C)cc2)c2ccccc21 | inactive: 16.5% | 
15 | COc1ccc(C(=O)n2nc(N)c3cc4ccc(C)cc4nc32)cc1OC | inactive: -0.727% | 
16 | COCCNC(=O)CCCn1c(SCC(=O)Nc2ccc(F)cc2)nc2c(sc3ccccc32)c1=O | inactive: -2.75% | 
17 | Cc1nc2cc(-c3ccccc3)nn2c(C)c1CCC(=O)N1CCN(c2ccc(F)cc2)CC1 | inactive: -11.7% | 
18 | COC(=O)c1cc2oc(C)cc2n1Cc1ccccc1Cl | inactive: -16.8% | 
19 | COc1ccccc1C1NC(=O)c2n[nH]c(-c3cccs3)c21 (stereo unspecified) | inactive: -11.9% | 
20 | CC1CCN(C(=O)c2c(NC(=O)c3ccccc3Cl)sc3c2CCC(C(C)(C)C)C3)CC1 (stereo unspecified) | inactive: 3.8% | 
21 | Cc1cc2nc(-c3ccc(OCc4ccccc4C)cc3)cc(C(F)(F)F)n2n1 | inactive: 2.48% | 
22 | COc1cc(C2CC(=O)N(Cc3cccc(F)c3)c3ccccc3S2)cc(OC)c1OC (stereo unspecified) | inactive: 4.55% | 
23 | Cc1cc(C)cc(-n2ccnc2SCC(=O)Nc2cccc3ccccc23)c1 | inactive: -10.2% | 
24 | CNC(=O)C1CCC(Cn2c(=O)c3sccc3n(Cc3cc(C)ccc3C)c2=O)CC1 (stereo unspecified) | inactive: -8.9% | 

Row | SMILES | activity change, negative = inhibition | Potency
25 | Cc1ccccc1-c1nc(CN2CCCC(C(=O)NCc3ccc(Cl)cc3)C2)c(C)o1 (stereo unspecified) | inactive: 2.82% | 
26 | COc1ccc(N2C(=O)NC(NS(=O)(=O)c3ccc(Cl)cc3)(C(F)(F)F)C2=O)cc1 (stereo unspecified) | inactive: 0.707% | 
27 | CCc1ccc(S(=O)(=O)c2cn(CC(=O)Nc3ccc(F)c(Cl)c3)c3ccccc3c2=O)cc1 | inactive: 1.12% | 
28 | CCN(C(=O)Cn1c(C(=O)OC)cc2sc(Cl)cc21)c1cccc(C)c1 | inactive: -0.634% | 
29 | COc1ccc([N+](=O)[O-])cc1NC(c1nnc(-c2ccccc2)o1)c1ccccc1F (stereo unspecified) | inactive: -23.4% | 
30 | CSc1nc(NCCOC(C)=O)c(C#N)c(-c2ccc(C(C)(C)C)cc2)n1 | inactive: -4.59% | 
31 | COc1ccc(C2C(=O)N(C3CCCCC3)CC(=O)N2CCc2ccc(C)cc2)cc1OC (stereo unspecified) | inactive: -1.86% | 
32 | Cc1ccc2nc(CN3CCN(C(=O)Nc4ccc(F)cc4)CC3)oc2c1 | inactive: 0% | 
33 | COc1ccc(NC(=O)CCc2c(C)nc3c(c2C)c(=O)n(C)c(=O)n3C)c(OC)c1 | inactive: -3.38% | 
34 | CCc1ccccc1NC(=O)Cn1nc2c3cc(F)ccc3n(Cc3cccc(C)c3)cc-2c1=O | inactive: -4.34% | 
35 | O=C(COc1ccccc1F)Nc1ccc2nc(SCC(=O)N3CCc4ccccc43)sc2c1 | inactive: -1.83% | 
36 | CCOC(=O)c1c(NC(=O)c2cc(-c3ccccc3OC)on2)sc(C)c1C | inactive: -0.243% | 
37 | CCOc1ccc(-c2cn3c(n2)sc2cc(C(=O)NCCCN4CCCCCC4)ccc23)cc1 | inactive: 3.16% | 
38 | CCc1ccc2oc(C(=O)NCC(c3ccc(OC)cc3)N3CCCCC3)c(C)c2c1 (stereo unspecified) | inactive: 1.78% | 
39 | CC1=C(C(=O)Nc2cccnc2)C(c2ccc(F)cc2)n2nc(-c3cccc(C)c3)nc2N1 (stereo unspecified) | inactive: -18.1% | 
40 | Cc1cc(NC(=O)C2CCN(S(=O)(=O)c3c(C)noc3C)CC2)ccc1Br | inactive: -20% | 
41 | Cc1cc(C)c2nc(N(Cc3cccnc3)C(=O)CCS(=O)(=O)c3ccccc3)sc2c1 | inactive: -1.79% | 
42 | COc1ccc(-c2nc3nc(C)cc(C)n3c2Nc2c(C)cccc2C)cc1 | inactive: -9.06% | 
43 | COc1ccccc1CNC(=O)C1(c2cccs2)CCOCC1 | inactive: 2.2% | 
44 | N#Cc1c[nH]n2c(NC3CCCCC3)c(-c3ccc(F)cc3)nc12 | inactive: 1.59% | 
45 | Cc1cccc(-n2ccnc2SCC(=O)Nc2cccc3ccccc23)c1 | inactive: 2.38% | 
46 | Cc1cc(C)cc(OCCSc2nc3ccc(NC(=O)c4ccc5c(c4)OCO5)cc3s2)c1 | inactive: 0.997% | 
47 | CCc1ccc2[nH]cc(S(=O)(=O)c3ccc(C(C)C)cc3)c(=O)c2c1 | inactive: -12.3% | 
48 | O=C(COc1ccccc1Cl)Nc1ccc(OCc2cc(=O)n3ccsc3n2)cc1 | inactive: 3.26% | 

Row | SMILES | activity change, negative = inhibition | Potency
49 | COc1cccc(Nc2nc3cc(C)ccc3nc2NS(=O)(=O)c2ccc(Cl)cc2)c1 | inactive: -0.805% | 
50 | COC(=O)c1ccccc1NC(=O)Cn1cnc2sc(C)c(S(=O)(=O)N3CCC(C)CC3)c2c1=O | inactive: 1.17% | 
51 | Cc1nc2ccccn2c(=O)c1NC(=O)c1cccc(F)c1 | inactive: -7.63% | 
52 | CCOc1ccc(C2C(=O)N(C3CCCCCC3)CC(=O)N2Cc2ccccc2)cc1OC (stereo unspecified) | inactive: 0.749% | 
53 | COc1ccc(NC(=O)/C=C\C(=O)N(c2ccc(C(C)C)cc2)C(C(=O)NCc2ccco2)c2ccc(C)cc2)cc1 (stereo unspecified) | inactive: -9.01% | 
54 | CCOC(=O)c1cccc(NC(=O)c2ncoc2-c2ccco2)c1 | inactive: 10.7% | 
55 | Cc1ccccc1N(C)S(=O)(=O)c1nnc(NC(=O)c2ccco2)s1 | inactive: 2.53% | 
56 | CCOC(=O)c1cc(-c2ccc(OC)cc2)n(CCC(=O)NCCc2ccccc2)c1C | inactive: -2.87% | 
57 | COc1cccc(C(=O)NCCc2csc3nc(-c4ccccc4F)nn23)c1OC | inactive: -1.98% | 
58 | Cc1ccc(NC(=O)C2(C)Cc3ccccc3C(=O)O2)c(C)c1 (stereo unspecified) | inactive: 2.16% | 
59 | Cc1cc(OCC(=O)NCCc2nc3ccccc3[nH]2)cc(C)c1Cl | inactive: -4.79% | 
60 | Cc1ccc(S(=O)(=O)C(CNC(=O)c2c(F)cccc2F)c2ccco2)cc1 (stereo unspecified) | inactive: -5.02% | 
61 | Cc1cccc(C(=O)N2CCc3cc(CNC(=O)c4cc5ccccc5[nH]4)ccc32)c1 | inactive: -2.6% | 
62 | CCn1nc(C)c(CCN(C)C(=O)Nc2cccc(Cl)c2C)c1C | inactive: 0% | 
63 | Cc1ccc(CNC(=O)C(C)n2c(=O)cc(C(F)(F)F)c3c(C)nn(C)c32)cc1 (stereo unspecified) | inactive: -9.59% | 
64 | O=S(=O)(c1ccccc1)c1nc(-c2ccccc2Cl)oc1N1CCCCCC1 | inactive: -11.3% | 
65 | Cc1cc(C)c(S(=O)(=O)NCCS(=O)(=O)N2CCN(c3ccccc3)CC2)c(C)c1 | inactive: -0.498% | 
66 | CCOc1ccc(CCNC(=O)C2CCCN(S(=O)(=O)N(C)c3ccc(F)cc3)C2)cc1 (stereo unspecified) | inactive: -16.9% | 
67 | CCS(=O)(=O)N1CCc2cc(C(=O)NCc3ccccc3OC)ccc21 | inactive: -1.31% | 
68 | Cc1ccccc1-c1nc2scc(CCNC(=O)c3ccco3)n2n1 | inactive: -10% | 
69 | COc1cccc(NC(=O)C2CCC(CNS(=O)(=O)c3ccc4c(c3)CCCC(=O)N4)CC2)c1 (stereo unspecified) | inactive: -11.8% | 
70 | COc1cccc(NC(=O)C2CCN(c3ccc(Sc4ccc(C)cc4)nn3)CC2)c1 | inactive: -0.424% | 
71 | COc1ccc(NC(=O)CN2C(=O)COc3ccc(S(=O)(=O)N4CCOCC4)cc32)cc1 | inactive: 0.873% | 
72 | O=C(CSc1nc(=O)n(Cc2ccco2)c2c1CCC2)NCc1ccccc1 | inactive: -7.17% | 

Row | SMILES | activity change, negative = inhibition | Potency
73 | Clc1ccccc1OCCSc1nnc(-c2cccs2)o1 | inactive: 0.133% | 
74 | CCc1ccc2oc(-c3ccc(C)c(NC(=O)/C=C/c4ccco4)c3)nc2c1 | inactive: 5.71% | 
75 | Cc1ccc2nc(/C(C#N)=C/c3ccccc3F)[nH]c2c1 | inactive: 6.68% | 
76 | Cc1cccc(OCCSc2nnc(-c3cccs3)o2)c1 | inactive: -0.351% | 
77 | Cc1sc2ncn(CC(=O)N3CCN(c4ccccc4F)CC3)c(=O)c2c1S(=O)(=O)N1CCC(C)CC1 | inactive: 2.88% | 
78 | COc1ccc(Cl)cc1-n1cc(-c2ccccc2)nc1SCC(=O)Nc1ccc(C)cc1 | inactive: -3.52% | 
79 | O=C(NC1CCCC1)c1ccc2c(=O)n(Cc3ccccc3)c(SCc3ccccc3F)nc2c1 | inactive: -6.11% | 
80 | COc1ccccc1CNC(=O)C1CCN(c2nc3ccc(C)cc3[nH]2)CC1 | inactive: -8.23% | 
81 | COc1ccc(-c2cc(-c3ccc(C)cc3)nc3c2COc2ccccc2-3)cc1 | inactive: -0.521% | 
82 | CCC(Cn1nnc2ccccc2c1=O)NC(=O)Nc1ccccc1OC (stereo unspecified) | inactive: -8.12% | 
83 | Cc1ccc(S(=O)(=O)c2nc(-c3ccc(F)cc3)oc2SCC(=O)NC2CCCCC2)cc1 | inactive: 0.229% | 
84 | COc1ccc(CCNC(=O)c2ccc3c(c2)CCN3S(C)(=O)=O)cc1OC | inactive: 1.15% | 
85 | COc1ccc2c(CNCCc3ccc(SC)cc3)c(C(=O)O)n(Cc3ccc(F)cc3)c2c1 | inactive: 0% | 
86 | COc1ccc2c(c1)c(=O)c(C(=O)c1ccccc1)cn2CC(=O)Nc1ccc2c(c1)OCO2 | inactive: 0.917% | 
87 | COc1ccc(Cn2cc(S(=O)(=O)c3ccc(C)cc3)c(=O)c3cc(F)ccc32)cc1 | inactive: 1.89% | 
88 | Cc1nc(-c2ccc(S(=O)(=O)Nc3cc(Cl)ccc3C)cc2)co1 | inactive: -12.7% | 
89 | CCS(=O)(=O)c1ncc(Cl)c(C(=O)N2CCN(c3ccc(OC)cc3)CC2)n1 |  | active: 3.29 µM
90 | CCOc1ccc(NC(=O)c2oc3ccccc3c2NC(=O)COc2cccc(OC)c2)cc1 | inactive: -12.4% | 
91 | Cc1cccc(CN2C(=O)c3ccccc3Sc3ccc(C(=O)NCc4ccco4)cc32)c1 | inactive: 5.82% | 
92 | NS(=O)(=O)c1ccc(CCNC(=O)C2CCN(c3ncnc4c3nc3n4CCCCC3)CC2)cc1 | inactive: -5.89% | 
93 | CCC(Sc1nc2c(sc3ccccc32)c(=O)n1CCc1ccc(OC)c(OC)c1)C(=O)N(CC)CC (stereo unspecified) | inactive: 1.45% | 
94 | CCC(CC)C(=O)Nc1nnc(S(=O)(=O)N2CCCCCC2)s1 | inactive: -9.96% | 
95 | Cc1cn2c(=O)cc(COC(=O)c3ccc(NC(=O)c4ccc(F)cc4)cc3)nc2s1 | inactive: 33.3% | 
96 | CCOC(=O)c1ccc(NC(=O)c2cnn3c(=O)c4c(n(CC)c23)CCN(Cc2ccc(OC)cc2)C4)cc1 | inactive: 0% | 
